Experimental data taken from PubChem BioAssay AID1671188 (National Center for Advancing Translational Sciences (NCATS), 2021).
Out of some 100,000 compounds screened, about 250 (0.25%) were called active. This list was built around the results that the source calls inconclusive (neither active nor inactive); the mix of calls is not that of the screen. Calls come from the whole dose curve; as a rule, active = well fitted inhibition curve with a large enough effect; inconclusive = small, poorly fitted or top-dose-only effect; inactive = flat fitted curve, though single readings scatter. No potency is given beside an inconclusive call; the fits are too rough.

molecular target: Alanine aminotransferase 2 (Homo sapiens) (UniProt Q8TD30); experiment: Primary qHTS assay for inhibitors of Glutamate pyruvate transaminase 2 (GPT2); details: Recombinant GPT2, coupled pyruvate oxidase/HRP Amplex Red fluorescence; activity change, negative = inhibition: at 57.7 µM (top of the series) unless noted; series mostly up to 57.7 µM; note: nearly all actives have a fitted effect of over 60% in size
Outline: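 GPT2 10ng/uL, a-KG 250uM, L-Ala 2mM, HEPES pH7.5 + 0.0001% Tween; 30 min RT. Then Amplex mix (PO/HRP/ThPP), 30 min RT dark, fluorescence. AOA 50uM used as positive control.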
% is set by controls: 0 for no effect and ±100 for the full control effect; potency is the fitted concentration of half-maximal effect; tags give direction and shape of the fitted curve.

Sequence of UniProt Q8TD30 (Q8TD30 whole entry, looked up): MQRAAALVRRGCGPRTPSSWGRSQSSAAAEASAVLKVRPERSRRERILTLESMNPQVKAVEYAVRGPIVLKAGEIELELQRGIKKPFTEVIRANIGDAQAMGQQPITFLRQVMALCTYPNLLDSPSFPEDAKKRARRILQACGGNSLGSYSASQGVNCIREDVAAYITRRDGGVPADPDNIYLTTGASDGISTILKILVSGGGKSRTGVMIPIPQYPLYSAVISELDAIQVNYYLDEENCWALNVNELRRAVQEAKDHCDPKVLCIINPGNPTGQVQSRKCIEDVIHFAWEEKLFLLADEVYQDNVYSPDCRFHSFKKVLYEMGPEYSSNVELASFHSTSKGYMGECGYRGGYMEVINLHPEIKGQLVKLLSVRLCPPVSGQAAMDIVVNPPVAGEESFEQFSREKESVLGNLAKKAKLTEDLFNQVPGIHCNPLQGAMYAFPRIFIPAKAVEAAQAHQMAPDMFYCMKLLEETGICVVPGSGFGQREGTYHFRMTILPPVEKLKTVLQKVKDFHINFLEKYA

| Compound | Potency | outcome | activity change, negative = inhibition |
| --- | --- | --- | --- |
| CCCCc1cn([C@@H]2CN[C@H](C(=O)O)C2)nn1 | inconclusive [inhibitor, full curve, poor fit] |  |  |
| O=C(C[C@@H]1CCNC[C@@H]1Cc1cc(-c2ccc(F)cc2)on1)NCc1ccc2c(c1)OCO2 | inconclusive [inhibitor, single point] |  |  |
| CN1CCN(c2ccc3ncc(Nc4ccccc4F)n3n2)CC1 | inconclusive [inhibitor, single point] |  |  |
| COc1ccccc1N1CCN(C(=O)C(OC)c2ccccc2)CC1=O (stereo not given) | inconclusive [inhibitor, single point] |  |  |
| Cc1ccsc1C(=O)N1C[C@@H](Oc2cccnc2)C[C@@H]1C(=O)N1CCOCC1 |  | inactive |  |
| C[C@@H]1O[C@@H](O[C@H]2[C@H](O[C@H]3[C@H](O[C@H]4CC[C@@]5(C)C(CC[C@]6(C)C5CC=C5[C@@H]7CC(C)(C)C[C@@H](O)[C@]7(C)CC[C@]56C)C4(C)C)O[C@H](C(=O)O)[C@@H](O)[C@@H]3O)O[C@H](C(=O)O)[C@H](O)[C@@H]2O)[C@H](O)[C@H](O)[C@H]1O (stereo not given in full) | inconclusive [inhibitor, single point] |  |  |
| COC(=O)c1cn([C@H]2CO[C@H]3[C@@H]2OC[C@@H]3NC(=O)C2CC2)nn1 | inconclusive [inhibitor, partial curve] |  |  |
| COc1cncc(N2C[C@@H]3[C@H](C2)N(CCOc2ccccc2)C(=O)C(C)(C)[S+]3(=O)[O-])c1 | active: 10 µM |  |  |
| Oc1c(Cl)cc(Cl)c2cccnc12 | inconclusive [inhibitor, partial curve, poor fit] |  |  |
| COc1ccc(OCc2cc(C(=O)N(C)CC(O)CO)n[nH]2)c(Cl)c1 (stereo not given) |  |  | inactive: -3.47% [at 11.5 µM] |
| COc1ccc(N2Cc3c(NCCCc4ccccc4)ncnc3N(C)CC2=O)cc1 | inconclusive [inhibitor, partial curve] |  |  |
| O=C(NC1CCN(Cc2ccccc2)CC1)C1CC(=O)N(c2n[nH]c3cccc(F)c23)C1 (stereo not given) | inconclusive [inhibitor, partial curve, poor fit] |  |  |
| c1ccc(-c2ccc3ncc(Nc4ccc5c(c4)OCCO5)n3n2)cc1 | inconclusive [inhibitor, single point] |  |  |
| COC(=O)C1=C(C)N=C2SC=C(CC(=O)NCc3cccc(F)c3)N2C1c1ccccc1Cl (stereo not given) | inconclusive [inhibitor, single point] |  |  |
| Cc1ccc(C(=O)N2C[C@@H](CO)[C@H](c3ccncc3)C2)c(C)c1 | inconclusive [inhibitor, single point] |  |  |
| Cc1cc(C(=O)N2CCC(OCC3CC3)C2)n(C)n1 (stereo not given) |  |  | inactive: -4.01% |
| COc1ccccc1Cn1c(=O)c(C(=O)NCCc2ccc(F)cc2)nc2cccnc21 | inconclusive [inhibitor, full curve, poor fit] |  |  |
| COc1cc(-c2nc(-c3c(C)noc3C)cc3cc(CN(C)C)oc23)ccn1 |  |  | inactive: -24.1% [at 88.5 µM] |
| CCOCCNc1ncnc2c1CN(c1cccc(C)c1)C(=O)CN2C | inconclusive [inhibitor, single point] |  |  |
| Cn1cc(CN2C[C@@H](F)[C@@H](OCc3nc4ccc(C#N)cc4[nH]3)C2)c2ccccc21 |  |  | inactive: 1.51% [at 88.5 µM] |

| Compound | Potency | outcome | activity change, negative = inhibition |
| --- | --- | --- | --- |
| O=C(C[C@@H]1CCNC[C@@H]1Cc1cc(CSc2ccccc2)on1)NCCN1CCOCC1 |  |  | inactive: -4.95% |
| O=C1OCC2(CCN(Cc3ccn[nH]3)C2)N1CCN1CCOCC1 (stereo not given) |  |  | inactive: -8.03% [at 88.5 µM] |
| COc1ccc(N2CC3CCC(C2)N3Cc2ccc(-c3cccnc3)cc2)cc1 | inconclusive [inhibitor, single point] |  |  |
| Cc1ccc(NC(=O)N2CCc3c(C(=O)NCCc4ccccn4)cccc32)cc1 | inconclusive [inhibitor, full curve, poor fit] |  |  |
| Cc1ccc(CNC(=O)N2CCC3(CC2)CC(C(=O)N2CCOCC2)N(C)C3)cc1 (stereo not given) |  |  | inactive: -25.4% |
| CNC(=O)[C@@H]1C[C@@H](O)CN1C1CCN(C(=O)c2ccccc2)CC1 |  | inactive |  |
| CC1CCN(CC[C@H]2CCCN2S(=O)(=O)c2cccc(O)c2)CC1 | inconclusive [inhibitor, single point] |  |  |
| CCCC(=O)N1Cc2ccccc2CC2(CCCCN2Cc2ccncc2)C1 (stereo not given) |  | inactive |  |
| Cc1ccccc1N1Cc2c(NCc3ccccn3)ncnc2N(C)CC1=O | inconclusive [inhibitor, single point] |  |  |
| Cc1c(CC(=O)NC2CCOCC2)c2c(n1Cc1ccccc1F)CCCC2=O | inconclusive [inhibitor, partial curve] |  |  |
| COc1cccc(-c2cccc(C(=O)N3CCN(C(=O)c4ccccc4C)CC3)c2)c1 |  |  | inactive: -5.16% |
| O=C(c1ccc2nnc(-c3cccc(OC(F)(F)F)c3)n2c1)N1CCCC1 |  | inactive |  |
| CC(C)C(N)C(=O)OCCOCn1cnc2c(=O)[nH]c(N)nc21 (stereo not given) | inconclusive [inhibitor, full curve, poor fit] |  |  |
| CC(=O)c1cc(C(=O)N2CCC3(CC2)Nc2ccccc2NC3=O)[nH]n1 | inconclusive [inhibitor, partial curve] |  |  |
| CCc1cnc(C)nc1N1CCOC(c2ccc(Cl)cc2)C1 (stereo not given) | inconclusive [inhibitor, full curve, poor fit] |  |  |
| O=C(NC1CCCC1)C1c2ccccc2C(=O)N(C2CCCC2)C12CCCCC2 (stereo not given) |  |  | inactive: -4.46% |
| COc1ccc(C(=O)N2CCC3(CC2)NC(=O)N(c2ccccc2Cl)N3)cc1F | inconclusive [inhibitor, single point] |  |  |
| O=C(NCC1CCN(c2cc(-c3ccc(F)cc3)[nH]n2)CC1)c1c[nH]c2ccccc12 | inconclusive [inhibitor, partial curve] |  |  |
| OCC1OC(Oc2cc(O)c3c(c2)OC(c2ccc(O)cc2)C(O)C3)C(O)C1O (stereo not given) | inconclusive [inhibitor, full curve, poor fit] |  |  |
| COc1ccc(NC(=O)O[C@@H]2CO[C@H]3[C@@H]2OC[C@@H]3NS(=O)(=O)Cc2ccccc2)cc1 | inconclusive [inhibitor, partial curve, poor fit] |  |  |
